# In the supplement of paper PMC3334620:
# Over roughly 33,000 sequences, “E-score (-0.5 to 0.5)” has its median near -0.011; the highest 2% begin near 0.28. The list shows a part of the results.
# Target: T1, Gcr1 (UniProt P07261)
# T1 sequence: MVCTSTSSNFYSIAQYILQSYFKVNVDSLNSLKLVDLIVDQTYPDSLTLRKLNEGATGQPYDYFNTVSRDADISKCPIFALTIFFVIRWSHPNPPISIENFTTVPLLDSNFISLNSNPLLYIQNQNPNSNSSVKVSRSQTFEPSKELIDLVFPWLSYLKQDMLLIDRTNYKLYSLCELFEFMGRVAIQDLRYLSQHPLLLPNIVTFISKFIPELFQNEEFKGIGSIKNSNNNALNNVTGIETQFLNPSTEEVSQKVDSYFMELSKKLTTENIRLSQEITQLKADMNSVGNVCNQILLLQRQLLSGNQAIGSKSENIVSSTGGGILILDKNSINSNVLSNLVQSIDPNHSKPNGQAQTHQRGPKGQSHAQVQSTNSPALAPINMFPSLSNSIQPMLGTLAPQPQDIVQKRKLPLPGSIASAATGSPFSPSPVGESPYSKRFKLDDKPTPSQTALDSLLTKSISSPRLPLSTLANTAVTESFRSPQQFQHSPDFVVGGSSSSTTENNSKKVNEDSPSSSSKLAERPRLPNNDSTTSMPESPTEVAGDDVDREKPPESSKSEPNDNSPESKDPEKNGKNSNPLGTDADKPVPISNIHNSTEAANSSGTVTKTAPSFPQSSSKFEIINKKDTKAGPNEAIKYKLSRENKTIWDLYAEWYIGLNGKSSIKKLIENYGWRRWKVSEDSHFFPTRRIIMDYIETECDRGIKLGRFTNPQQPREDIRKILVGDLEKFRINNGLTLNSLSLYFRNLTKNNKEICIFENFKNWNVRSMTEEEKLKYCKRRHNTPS
# Experiment: PBM E-score (8-mer binding enrichment) (E-score (-0.5 to 0.5)); higher = stronger / more preferred TF binding; most listed sequences are background and not binding sites
# Conditions: protein concentration: 100 nM; construct: GST-full length
# Method in brief: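 Universal all-10-mer Agilent arrays, double-stranded by primer extension on fresh or once-stripped slides, were probed with about 100-200 nM GST-tagged yeast transcription factors made by PURExpress. Fluorescent anti-GST detected bound protein, and masliner normalised the scans. E-scores from the Universal PBM Analysis Suite were given to each ungapped eight-base word pooled with its reverse complement.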
row,Sequence,PBM E-score
1,AGGCTCTG,-0.211
2,AACAGAAC,0.138
3,AGCACCTA,0.241
4,CATGACGG,-0.0921
5,CGGGTTAA,-0.0652
6,CGCCATCA,-0.0561
7,GGGGTGTA,-0.0995
8,CGAGATAA,0.142
9,TCGTAGAA,0.145
10,ATAGGTGC,0.0575
11,CCCCGGCA,-0.0104
12,CATTACAG,-0.0702
13,AGGCATAG,-0.209
14,ATGGAATG,-0.00503
15,ATACAGTC,-0.258
16,GGAAATAA,0.09
17,AAAAGGGG,0.143
18,ATCTTCGC,-0.0394
19,ACTGTATC,-0.275
20,AACGCACC,-0.0685
21,ACCCTTGC,-0.187
22,ACACCACA,0.12
23,CCTAATGA,0.179
24,CTATGTCA,0.0536
25,ACTATTGG,0.0296

row,Sequence,PBM E-score
1,CGTTGAGA,-0.138
2,AGGCTTTC,-0.217
3,ACAACTTG,0.119
4,AAGAACCT,0.2
5,CCCGAGCG,-0.169
6,GATATAAA,-0.0128
7,GATTATGC,-0.0723
8,ACGGCAAC,0.0889
9,TCATATGA,-0.185
10,ACGCTCTC,0.0548
11,AGAGTGAC,-0.146
12,GTAATTAA,-0.228
13,CTAACGTA,-0.17
14,GGTATCTA,0.292
15,AGAATTAA,0.133
16,TCCGCCGA,0.198
17,AACCGGTT,0.276
18,AATGCCAT,-0.0478
19,GGAAACGA,0.0988
20,AAGCAGCC,0.308
21,ACACAGAA,-0.0461
22,AACCGGGT,0.0617
23,GCAGGTCA,-0.153
24,CAGGTCAG,-0.172
25,CGCGCGTA,0.00763

row,Sequence,PBM E-score
1,TGTCTCAA,-0.0159
2,GTCTACCA,0.0171
3,AACAAATC,-0.0494
4,AGGTTATG,-0.0729
5,GCTATCAA,0.216
6,TCTGGCAA,0.0938
7,AAAAAATA,0.236
8,TATACCAA,0.122
9,AGTTCTCA,-0.0717
10,CGGCGAAG,-0.105
11,GTATTGAA,0.0329
12,ACAGTATA,-0.17
13,CTGTAAAA,0.213
14,GCTACTCC,0.0342
15,GAAGCTAA,0.312
16,AGCTCGAT,-0.0366
17,GATCTGGA,0.0947
18,CCCCCGTC,-0.14
19,AATTCTCG,0.0938
20,ACACCCTG,-0.0426
21,ACAAACTA,0.0419
22,ATTCTTAG,0.033
23,GGCATCTA,0.347
24,GGACGTCA,-0.115
25,AATGCAAA,0.0621

row,Sequence,PBM E-score
1,GATTAACC,-0.0563
2,AATGTAAT,0.0846
3,AGAACGCC,0.062
4,CCGCGTCC,0.182
5,GGCATGAA,-0.0265
6,AGTAAGTA,-0.0361
7,ACCCTGTC,-0.0299
8,AATCCGGG,0.0188
9,CCGGCGAA,-0.0464
10,CGGTCCCA,0.0526
11,AATGTTGT,-0.0341
12,CTCGCGAG,-0.113
13,GTCACGTA,-0.251
14,AATAGATA,0.0158
15,AGGCACTC,0.034
16,GCTTTTCA,0.135
17,CGGCTACA,0.23
18,CTCTCCCC,-0.14
19,CGTCACGA,0.108
20,CAAATGGG,-0.0381
21,CGCAGGCA,-0.0288
22,CCAACCAG,0.0242
23,ATACGTAA,0.053
24,ATGGTCTC,-0.136
25,ATCGAGCA,0.0359

row,Sequence,PBM E-score
1,ACTGGTTC,-0.00118
2,CCGCTGCG,0.0151
3,ACTATTAT,0.123
4,GGAGCCAC,0.289
5,GTTCCACA,0.115
6,CGGTCGCA,-0.09
7,GGGCACCA,0.364
8,CTCTCTAC,-0.278
9,CCGACACG,0.03
10,ATGGGTGA,-0.0671
11,CACGCCGA,-0.207
12,AGGTACAC,-0.087
13,TAGACCCA,-0.089
14,CCACGGGA,0.0479
15,GATTATCC,-0.103
16,CACCCACA,0.127
17,CAGTGAGC,-0.272
18,TCCTCCCA,-0.206
19,CCGCCAGG,-0.114
20,ACTGTAGC,-0.174
21,AAAAAAAA,0.243
22,CTCTAGCA,0.053
23,AATCTTGG,0.245
24,CGGCCGTA,-0.0291
25,AGGAAGGG,-0.0994

row,Sequence,PBM E-score
1,ACCCGAAC,0.00324
2,GAAGAAGC,0.318
3,TGCGACAA,0.0608
4,ATGGTACA,0.105
5,AGGGGTTG,0.0343
6,ATTAGGGG,0.11
7,GGAGCCAA,0.33
8,GCCGGGGA,-0.049
9,AACGCGGA,-0.102
10,GCTACTAA,0.111
11,ATAGCATA,-0.0239
12,CGCCCCCA,0.173
13,AAGCAGAA,0.0924
14,AATTGGGC,0.0472
15,CCTAGTGC,-0.0169
16,CCGCAGGC,0.0198
17,CATTCGAC,0.0126
18,ACCCTACA,-0.121
19,ACGAGACT,-0.16
20,CTAGCAAA,0.00946
21,AAGGAGAT,-0.109
22,AAGCCACT,0.128
23,ACCCCTCC,-0.0116
24,TCCACAAA,0.288
25,ACTCAACT,-0.0211

row,Sequence,PBM E-score
1,AATCCTAA,0.205
2,AATATCAT,0.0703
3,AACGTCTG,-0.089
4,GAAAGCTA,-0.223
5,AGGGGTAG,0.187
6,AGACAGTA,-0.222
7,GATTTTCA,0.0679
8,ACGTATGA,-0.145
9,GGTAACGA,-0.115
10,ACGATTTA,0.0363
11,CCGGAATC,0.219
12,CGGGGCAC,0.126
13,TGAATGCA,-0.0305
14,CGTTCCCC,-0.0544
15,CTACGGCC,-0.309
16,TACAGTAA,0.0827
17,CTTATGAA,-0.0404
18,CGTTATCA,0.136
19,AACCCCCT,-0.273
20,ATAGGTTC,0.14
21,GTTCGAAA,-0.0133
22,AAGTTTTA,0.131
